Several values for one entry are separate records, joined by “and”; a condition that tells them apart may be missing. Equal entries are not always repeated. About 17,000 (4.4%) of roughly 390,000 compounds were called active. Inconclusive means that the source gave no clear call. Such entries were picked first, then a sample of the others. Calls come from the whole dose curve; as a rule, active = well fitted inhibition curve with a large enough effect; inconclusive = small, poorly fitted or top-dose-only effect; inactive = no such curve, though single readings can be large or run the other way. A potency beside an inconclusive call is a rough fit, not a confirmed value.
Target: Lysine-specific demethylase 4A (Homo sapiens) (UniProt O75164)
UniProt O75164, sequence (O75164 whole entry, looked up, the tested form may be a part): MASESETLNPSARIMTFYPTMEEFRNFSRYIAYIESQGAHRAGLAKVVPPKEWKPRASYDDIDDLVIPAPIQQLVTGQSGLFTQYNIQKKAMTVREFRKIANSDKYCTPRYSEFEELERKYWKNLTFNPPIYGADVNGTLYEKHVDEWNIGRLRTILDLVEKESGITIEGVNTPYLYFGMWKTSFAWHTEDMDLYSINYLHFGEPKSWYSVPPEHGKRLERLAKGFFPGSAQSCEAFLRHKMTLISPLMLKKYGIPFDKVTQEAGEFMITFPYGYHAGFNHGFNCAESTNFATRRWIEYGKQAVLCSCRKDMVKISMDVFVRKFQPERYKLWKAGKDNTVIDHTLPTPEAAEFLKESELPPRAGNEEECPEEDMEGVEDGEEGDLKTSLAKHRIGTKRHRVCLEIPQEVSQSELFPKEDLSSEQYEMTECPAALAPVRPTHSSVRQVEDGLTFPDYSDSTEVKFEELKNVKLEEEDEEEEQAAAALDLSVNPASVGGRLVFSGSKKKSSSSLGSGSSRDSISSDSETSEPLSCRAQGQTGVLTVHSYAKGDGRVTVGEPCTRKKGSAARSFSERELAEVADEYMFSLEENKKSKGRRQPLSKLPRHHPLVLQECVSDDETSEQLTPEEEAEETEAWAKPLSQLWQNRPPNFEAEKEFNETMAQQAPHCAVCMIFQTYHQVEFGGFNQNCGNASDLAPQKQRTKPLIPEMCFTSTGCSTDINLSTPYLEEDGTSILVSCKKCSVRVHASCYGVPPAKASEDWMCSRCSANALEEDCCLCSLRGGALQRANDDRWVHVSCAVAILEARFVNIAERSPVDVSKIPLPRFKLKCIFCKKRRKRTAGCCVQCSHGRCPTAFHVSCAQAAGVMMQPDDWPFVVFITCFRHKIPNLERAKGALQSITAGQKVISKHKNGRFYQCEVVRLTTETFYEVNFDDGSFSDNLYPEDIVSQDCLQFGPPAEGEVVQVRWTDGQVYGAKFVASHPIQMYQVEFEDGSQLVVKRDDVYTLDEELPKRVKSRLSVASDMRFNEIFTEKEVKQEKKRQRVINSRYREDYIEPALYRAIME
Experiment: qHTS Assay for Inhibitors of JMJD2A-Tudor Domain; note: nearly all actives have a fitted effect of over 50% in size
Settings: AlphaScreen JMJD2A-Tudor / H3K4me3 peptide binding; series mostly up to 114 µM
Potency is the fitted concentration of half-maximal effect; tags give direction and shape of the fitted curve.

| SMILES | Potency |
| --- | --- |
| Cc1cc(OCCN2CCOCC2)ccc1[N+](=O)[O-] | active: 0.708 µM |
| CC(Oc1ccccc1)C(=O)Nc1nc(-c2ccccn2)cs1 (configuration not stated) | active: 20 µM |
| COc1ccccc1-c1nnc(C2CCN(S(=O)(=O)c3cccc([N+](=O)[O-])c3)CC2)o1 | inconclusive: 56.2 µM [inhibitor, partial curve] |
| COc1ccc(CCNc2nc(-c3ccc(O)cc3)cs2)cc1OC | inconclusive: 79.4 µM [inhibitor, partial curve] |
| O=C(/C=C/c1ccc([N+](=O)[O-])cc1)NCCSc1ccccc1 | inconclusive: 56.2 µM [inhibitor, partial curve] |
| COc1ccc(OC)c(NC(=O)Nc2ccc3c(c2)OCO3)c1 | inconclusive: 56.2 µM [inhibitor, partial curve] |
| O=C1c2ccccc2C(=O)N1CCCc1nc(-c2ccccn2)no1 | active: 79.4 µM |
| CN/N=C(\Cc1nc2ccccc2[nH]1)c1ccc([N+](=O)[O-])cc1 | inconclusive: 44.7 µM [inhibitor, partial curve] |
| C/C(=N\NC(=O)COc1cc(C)cc(C)c1)c1cccc(NC(=O)C2CCC2)c1 | inactive |
| O=C(COC(=O)c1ccccc1)NC1CCCCCC1 | inactive |
| CN(C)C(CNC(=O)c1ccc2c(=O)n(-c3ccccc3F)c(=S)[nH]c2c1)Cc1ccccc1 (configuration not stated) | inconclusive: 56.2 µM [inhibitor, partial curve] |
| Cc1cc(C)n(-c2ccc(C(F)(F)F)cc2[N+](=O)[O-])n1 | inactive |
| COc1cc2cc(C(=O)N/N=C/c3ccccc3Cl)[nH]c2cc1OC | inconclusive: 79.4 µM [inhibitor, partial curve] |
| O=C(CSc1n[nH]c(=O)n1-c1cccnc1)N1CCOCC1 | inactive |
| C=CCn1c(SCC(=O)Nc2cc(NC(C)=O)ccc2OC)nnc1-c1ccccn1 | inconclusive: 20 µM [inhibitor, full curve, poor fit] |
| CCCCOc1cccc(-c2cc(C(=O)NNC(=S)NCC)c3ccccc3n2)c1 | inconclusive: 63.1 µM [inhibitor, partial curve, poor fit] |
| Cc1ccc(OCc2n[nH]c(=S)n2-c2ccccc2)cc1 | inconclusive: 70.8 µM [inhibitor, single point] |
| Cc1ccc(NC(=O)C2C3CCCCC32)cc1[N+](=O)[O-] (configuration not stated) | inconclusive: 50.1 µM [inhibitor, partial curve] |
| O=C(NC1CCN(C(=S)Nc2ccccc2)CC1)C1CCCCC1 | inactive |
| CCN1C=C(Cc2ccccc2C)C2=C(C1)C(c1ccccc1C)C(C#N)=C(N)O2 (configuration not stated) | active: 56.2 µM |
| Clc1ccc(-n2cnc3c(Cl)ncnc32)cc1Cl | inactive |
| CCOc1ccc(OCC)c(NC(=O)C2CCCN(S(=O)(=O)c3ccc(C)cc3)C2)c1 (configuration not stated) | inconclusive: 12.6 µM [inhibitor, partial curve] |
| Oc1ccccc1/C=N/N1CCN(c2ccccn2)CC1 | inconclusive: 14.1 µM [inhibitor, single point] |
| CCOCCCNC(=S)N1CCN(c2nc(-c3ccccc3)cs2)CC1 | inconclusive: 56.2 µM [inhibitor, partial curve] |
| C/C(=N\NC(=O)c1ccc(CN2CCc3ccccc3C2)cc1)c1ccccc1O | inconclusive: 12.6 µM [inhibitor, full curve] |
| CNc1sc(C(=O)c2cccs2)c(N)c1-c1nc2ccccc2s1 | active: 50.1 µM |

| SMILES | Potency |
| --- | --- |
| CC(C)N1CCN(S(=O)(=O)c2ccc3ccccc3c2)CC1 | active: 15.8 µM |
| CCOc1ccccc1NC(=O)Cn1nc(N2CCN(c3ccccc3)CC2)ccc1=O | inactive |
| Oc1cccc(Nc2ncnc3c2oc2ccccc23)c1 | inactive |
| CCC(NC(=O)Nc1cccc(C)c1)c1c(-n2cccc2)sc2c1CCN(C)C2 (configuration not stated) | inconclusive: 50.1 µM [inhibitor, partial curve] |
| O=C(CCC1N=C2c3ccccc3N=C(SCC(=O)NCCc3ccccc3)N2C1=O)NCc1ccc(F)cc1 (configuration not stated) | inconclusive: 89.1 µM [inhibitor, single point] |
| Cc1ccc(-c2nc(N)sc2C)cc1 | inactive |
| COc1ccc(S(=O)(=O)Nc2ccc(N3CCOCC3)cc2)cc1[N+](=O)[O-] | inactive |
| CCOC(=O)C1CCN(C(=O)COC(=O)c2ccc3[nH]c4c(c3c2)CCCC4)CC1 | inconclusive: 50.1 µM [inhibitor, partial curve] |
| O=S(=O)(NC(=S)NC1CCCCC1)c1ccccc1 | inactive |
| CCc1nnc(NS(=O)(=O)c2ccc(NC(=O)/C=C/c3ccc(OC)cc3OC)cc2)s1 | inconclusive: 56.2 µM [inhibitor, partial curve] |
| S=c1nc(-c2cccc(Cl)c2)[nH][nH]1 | active: 2.51 µM |
| O=C(Nc1nccs1)C(c1ccccc1)N1CCCC1 (configuration not stated) | inconclusive: 28.2 µM [inhibitor, partial curve] |
| CCOC(=O)c1cnc2ccc(C)cc2c1Sc1ccccc1C(=O)OC | inconclusive: 22.4 µM [inhibitor, single point] |
| COc1ccc(NC(=O)CN2CCN(CC(=O)Nc3ccccc3Cl)CC2)cc1Cl | inactive |
| COCCNC(=S)N1CCN(c2nc(-c3ccc(Cl)cc3)cs2)CC1 | active: 31.6 µM |
| NC(=O)c1ccsc1NC(=O)COC(=O)c1ccccn1 | inactive |
| COc1ccc(C(CNC(=O)c2ccc3c(c2)OCCO3)N(C)C)cc1 (configuration not stated) | inactive |
| COc1ccccc1-c1nnc(NC(=O)C2=COCCO2)o1 | inconclusive: 70.8 µM [inhibitor, single point] |
| CCC(C)C(=O)Nc1nc(C)c(-c2csc(Nc3cc(Cl)ccc3OC)n2)s1 (configuration not stated) | inconclusive: 56.2 µM [inhibitor, partial curve] |
| CCOc1ccccc1NC(=O)C(OC(=O)c1cnccn1)c1ccccc1 (configuration not stated) | inactive |
| O=C(NNC(=O)C12CC3CC(CC(C3)C1)C2)c1ccccn1 | inactive |
| CCCCNCCOCCOc1ccccc1-c1ccccc1 | active: 1.41 µM |
| CN1CCN(Cc2ccc(-c3ccc(Cl)cc3)o2)CC1 | inactive |
| COc1ccc(C=NNC(=O)CCCC(=O)NN=Cc2ccc(OC)c(OC)c2)cc1OC | inconclusive: 22.4 µM [inhibitor, partial curve] |
| Cc1ccc(NC(=O)CN(c2ccc(C)cc2)S(=O)(=O)c2cccc3nonc23)cc1 | inconclusive: 11.2 µM [inhibitor, full curve] and inconclusive: 22.4 µM [inhibitor, full curve] |
| C=CCOc1ccc(C(c2c(C(=O)O)[nH]c3ccccc23)c2c(C(=O)O)[nH]c3ccccc23)cc1 | active: 79.4 µM |

| SMILES | Potency |
| --- | --- |
| COc1ccc(-n2c(C)c(C(=O)O)c3cc(OC)c4ccccc4c32)cc1 | inactive |
| O=[N+]([O-])c1cccc(NN=Nc2ccccc2)c1 | inconclusive: 50.1 µM [inhibitor, partial curve] |
| CCC(NC(=O)OCc1ccccc1)C(=O)Oc1ccc2ccc(=O)oc2c1 (configuration not stated) | inconclusive: 15.8 µM [inhibitor, single point] |
| CCOC(=O)C(Oc1ccc2c(-c3ccccc3)cc(=O)oc2c1C)c1ccccc1 (configuration not stated) | inactive |
| Cc1ccc(-n2cnc3c(sc4nc(N5CCOCC5)c5c(c43)CCCC5)c2=O)cc1 | inactive |
| CC(=O)c1cccc(N2C(=O)CN(S(C)(=O)=O)CC2(C)C(=O)NC2CCCC2)c1 (configuration not stated) | inactive |
| Cc1cc(C(=O)CCl)c(C)n1CCc1ccccc1 | active: 44.7 µM |
| Cc1cc(C(=O)COC(=O)C2COc3ccccc3O2)c(C)n1CC1CCCO1 (configuration not stated) | inconclusive: 44.7 µM [inhibitor, full curve] |
| CCCCCCC(=O)N(O)C1CC(=O)N(c2ccc(C)cc2)C1=O (configuration not stated) | active: 14.1 µM |
| Cc1ccc2c(c1)/C(=C/c1ccccc1)C(=O)N2 | inconclusive: 56.2 µM [inhibitor, single point] |
| COC(=O)c1scc(C#N)c1N/N=C(\C#N)S(=O)(=O)c1ccc(Cl)cc1 | inconclusive: 31.6 µM [inhibitor, partial curve] |
| CC1=Nc2nc(N3CCCCCC3)c(C#N)c3c4c(nc(c23)N1)N(c1ccc2ccccc2c1)C(=O)C4 | inactive |
| O=C(COC(=O)C1CC(=O)N(Cc2ccccc2)C1)c1ccc(F)cc1 (configuration not stated) | inactive |
| Clc1ccc(CN2CCCCCC2)cc1Cl | active: 3.98 µM |
| COc1ccc(OC)c(NC(=O)CC2SC(=Nc3ccccc3)N(CCc3ccccn3)C2=O)c1 (configuration not stated) | inconclusive: 22.4 µM [inhibitor, single point] |
| c1coc(-c2nnc3sc(C4CCCCC4)nn23)c1 | inconclusive: 100 µM [inhibitor, single point] |
| O=C(NCc1ccccc1Cl)c1ccc2c(c1)N(Cc1ccccc1)CCS2 | inactive |
| COc1ccc(/C=C/C(=O)c2cc3cccc(OC)c3oc2=O)cc1 | inactive |
| CC(NC(=O)CNC(=O)c1sc2ccccc2c1Cl)c1ccc(S(N)(=O)=O)cc1 (configuration not stated) | inconclusive: 44.7 µM [inhibitor, partial curve, poor fit] |
| O=C(NCC(=O)N1CCN(S(=O)(=O)/C=C/c2ccccc2)CC1)c1ccccc1F | inactive |
| Cc1ccc2c(c1)c(C)c(C)n2CC(O)Cn1nnc2ccccc21 (configuration not stated) | inconclusive: 44.7 µM [inhibitor, partial curve] |
| NS(=O)(=O)c1ccc(NC(=O)CSc2cn[nH]n2)cc1 | inactive |
| O=C(Sc1ccc(Cl)cc1)c1ccccn1 | inconclusive: 89.1 µM [inhibitor, single point] |
| CC(C)(C)c1nnc(NC(=O)c2ccc3c(c2)OCO3)s1 | active: 89.1 µM |
| CCCC1=NN(C(=O)C(=O)Nc2ccc(Br)cc2)C(O)(C(F)(F)F)C1 (configuration not stated) | inconclusive: 56.2 µM [inhibitor, partial curve] |

Reference: PubChem BioAssay AID504339 (National Center for Advancing Translational Sciences (NCATS), 2011)
